Common to all, as to assay type: cell-based
Data set [1] relates to CC(C)(C)c1cc(C(C)(C)C)c(NC(=O)c2c[nH]c3ccccc3c2=O)cc1O. In words: (§1) Binding affinity at human CFTR expressed in rat FRT cells assessed as Vmax relative to control.
Data set [2] relates to CC/N=C1\S/C(=C\c2ccc3c(c2)OCO3)C(=O)N1CC. The data set is described as §1. The note with it: filed as opener.
In data set [3] the test system is CCOc1ccccc1CC(=O)Nc1nnc(Cc2ccc(OC)c(OC)c2)s1. Described as §1. The note with it: filed as opener.
Data set [4] deals with CNc1nc(Nc2cccc([N+](=O)[O-])c2)nc(OCC(F)(F)F)n1. The description is as §1. The note with it: filed as opener.
The subject of data set [5] is Cc1cc(C)cc(/N=C2/NC(=O)/C(=C/c3ccc(O)cc3)S2)c1. Described as §1. The following applies: filed as opener.
The subject of data set [6] is Nc1ccc([N+](=O)[O-])cc1-c1nc2ccccc2n(Cc2ccccc2)c1=O. Described as §1. The note with it: filed as opener.
Data set [7] relates to O=C(c1cccs1)N1N=C(c2ccccc2)CC1c1ccccc1[N+](=O)[O-]. Described as §1. The note with it: filed as opener.

With “Cystic fibrosis transmembrane conductance regulator (Homo sapiens) (no sequence given)”, the Vmax in data set [1] was found to be 39%; in data set [2], 65%; in data set [3] it was 91%; in data set [4], 49%; in data set [5] it was 89%; in data set [6], 90%. The Vmax in data set [7] came out at 94%.

These data come from ChEMBL document CHEMBL5356990, “Overview of CFTR activators and their recent studies for dry eye disease: a review” (RSC Med Chem, 2023).
